The test system of one experiment is HSkMC. The experiment in a line: cytotoxicity call (relative viability < 0.9). Particulars: 10 µM.
Another experiment has as its system HepG2. Briefly: cytotoxicity call (relative viability < 0.9). The following applies: 10 µM.
The test system of another experiment is S. aureus RN4220. The experiment in a line: growth inhibition call (relative growth <= 0.2). Particulars: 50 µM.

Each structure is given as a SMILES string. Some of the results follow.

On to `CO[C@@H]1CN(C)C(=O)c2cc(NS(=O)(=O)c3ccccc3)ccc2OC[C@@H](C)N(C(=O)NC(C)C)C[C@@H]1C`, for which the cytotoxicity call in the experiment with HSkMC and with HepG2 was “inactive” in each case. Further, the growth inhibition call in the experiment on S. aureus RN4220 is “inactive”.

As for `C[C@@H]1CN([C@H](C)CO)C(=O)c2cccc(NC(=O)C3CC3)c2O[C@H]1CN(C)C(=O)NC1CCCCC1`, the cytotoxicity call in the experiment on HSkMC and with HepG2 was “inactive” each time. Further, the growth inhibition call with S. aureus RN4220 is “inactive”.

Take `CC(C)NC(=O)Nc1ccc2c(c1)CC(=O)N([C@H](C)CO)C[C@@H](C)[C@@H](CN(C)C(=O)Nc1ccc3c(c1)OCO3)O2`: the cytotoxicity call in the experiment with HSkMC and in the experiment on HepG2 was “inactive” each time. Besides, in the experiment with S. aureus RN4220, the growth inhibition call was “inactive”.

With `N#CCSc1ncnc2c1cnn2CCO`, the cytotoxicity call with HSkMC and with HepG2 was “inactive” in each case. The growth inhibition call in the experiment on S. aureus RN4220 was “inactive”.

Consider `O=C(Nc1ccccc1)c1ccco1`, for which the cytotoxicity call in the experiment on HSkMC and in the experiment on HepG2 was “inactive” each time. Further, in the experiment with S. aureus RN4220, the growth inhibition call was “inactive”.

For `COc1ccc(CN(C)C[C@H]2Oc3c(NC(=O)Nc4ccc(C(F)(F)F)cc4)cccc3C(=O)N([C@@H](C)CO)C[C@H]2C)cc1`, in the experiment on HSkMC, the cytotoxicity call was “inactive”. For the same compound, the cytotoxicity call in the experiment on HepG2 is “active”. The growth inhibition call in the experiment on S. aureus RN4220 was “inactive”.

As for `CS(=O)(=O)NCCc1ccccc1`, the cytotoxicity call in the experiment on HSkMC and with HepG2 was “inactive” in each case. The growth inhibition call in the experiment on S. aureus RN4220 was “inactive”.

As to `NCC[C@@H]1CC[C@@H](NC(=O)NC2CCCCC2)[C@@H](CO)O1`, the cytotoxicity call with HSkMC and with HepG2 was “inactive” throughout. Further, the growth inhibition call with S. aureus RN4220 was “inactive”.

On to `Cc1cc2c(cc1C)N[C@@H](CC(N)=O)C(=O)N2`, for which the cytotoxicity call with HSkMC and in the experiment with HepG2 was “inactive” throughout. Besides, the growth inhibition call with S. aureus RN4220 was “inactive”.

In the case of `C[C@H]1CN([C@@H](C)CO)C(=O)Cc2cc(NS(C)(=O)=O)ccc2O[C@H]1CN(C)C(=O)NC1CCCCC1`, the cytotoxicity call in the experiment with HSkMC and in the experiment on HepG2 was “inactive” in each case. Further, the growth inhibition call with S. aureus RN4220 was “inactive”.

Regarding `COc1ccc(NC(=O)N(C)C[C@@H]2Oc3ccc(NC(=O)Nc4ccc(C(F)(F)F)cc4)cc3C(=O)N([C@H](C)CO)C[C@@H]2C)cc1`, the cytotoxicity call with HSkMC and in the experiment on HepG2 was “inactive” throughout. The growth inhibition call in the experiment with S. aureus RN4220 is “inactive”.

Consider `Cc1cc(C(=O)NN)nn1C`, for which the cytotoxicity call in the experiment with HSkMC and in the experiment on HepG2 was “inactive” each time. Further, the growth inhibition call with S. aureus RN4220 is “inactive”.

For `O=C(C[C@@H]1CC[C@@H](NC(=O)c2cnccn2)[C@@H](CO)O1)NCc1ccccc1F`, the cytotoxicity call in the experiment on HSkMC and with HepG2 was “inactive” in each case. The growth inhibition call in the experiment with S. aureus RN4220 was “inactive”.

Take `COc1ccc(S(=O)(=O)Nc2ccc3c(c2)CC(=O)N([C@H](C)CO)C[C@@H](C)[C@H](CN(C)C(=O)Nc2c(C)noc2C)O3)cc1`: the cytotoxicity call with HSkMC and in the experiment on HepG2 was “inactive” each time. Also, the growth inhibition call in the experiment on S. aureus RN4220 is “inactive”.

Consider `Cc1ccc(S(=O)(=O)NCCC(=O)N2CCOCCOCCOCC2)cc1`, for which the cytotoxicity call in the experiment with HSkMC and with HepG2 was “inactive” in each case. The growth inhibition call in the experiment on S. aureus RN4220 is “inactive”.

In the case of `COCC#Cc1cnc2c(c1)C(=O)N([C@H](C)CO)C[C@@H](C)[C@H](CN(C)S(=O)(=O)c1ccccc1)O2`, the cytotoxicity call in the experiment on HSkMC and in the experiment with HepG2 was “inactive” throughout. Moreover, the growth inhibition call in the experiment with S. aureus RN4220 is “inactive”.

Regarding `Cc1ccc(S(=O)(=O)N(C)C[C@@H]2Oc3ccc(NS(C)(=O)=O)cc3CC(=O)N([C@@H](C)CO)C[C@@H]2C)cc1`, the cytotoxicity call in the experiment with HSkMC and with HepG2 was “inactive” in each case. In addition, the growth inhibition call in the experiment on S. aureus RN4220 is “inactive”.

For `C[C@H]1CN([C@@H](C)CO)C(=O)c2cc(NS(=O)(=O)c3ccccc3)ccc2O[C@H]1CN(C)CC1CC1`, the cytotoxicity call in the experiment on HSkMC and in the experiment on HepG2 was “inactive” in each case. In addition, the growth inhibition call in the experiment on S. aureus RN4220 was “inactive”.

Take `C[C@@H]1CN([C@H](C)CO)C(=O)CCCn2cc(nn2)CO[C@H]1CN(C)C(=O)c1cc(-c2ccccc2)on1`: the cytotoxicity call in the experiment with HSkMC and in the experiment on HepG2 was “inactive” throughout. In the experiment with S. aureus RN4220, the growth inhibition call is “inactive”.

On to `CN(C)CC#Cc1ccc([C@H]2[C@@H](CO)N3C(=O)CN(C(=O)CN(C)C)C[C@@H]23)cc1`, for which the cytotoxicity call in the experiment with HSkMC and with HepG2 was “inactive” throughout. For the same compound, in the experiment on S. aureus RN4220, the growth inhibition call is “inactive”.

Regarding `C[C@H](CO)N1C[C@H](C)[C@H](CN(C)S(=O)(=O)c2ccccc2)Oc2c(NS(=O)(=O)c3cccs3)cccc2C1=O`, the cytotoxicity call in the experiment with HSkMC and in the experiment on HepG2 was “inactive” each time. Also, the growth inhibition call with S. aureus RN4220 is “inactive”.

On to `C[C@H]1CN([C@@H](C)CO)C(=O)c2cccc(NC(=O)c3cnccn3)c2O[C@@H]1CN(C)C(=O)Nc1ccc2c(c1)OCO2`, for which the cytotoxicity call in the experiment on HSkMC and with HepG2 was “inactive” in each case. In addition, the growth inhibition call in the experiment on S. aureus RN4220 is “inactive”.

Turning to `C[C@@H]1CN([C@@H](C)CO)C(=O)c2cccc(NC(=O)c3ccncc3)c2O[C@H]1CN(C)Cc1ccncc1`, the cytotoxicity call in the experiment on HSkMC and in the experiment with HepG2 was “inactive” in each case. For the same compound, the growth inhibition call with S. aureus RN4220 is “inactive”.

Take `COc1ccc(NC(=O)N(C)C[C@@H]2Oc3ncc(C#CC(C)(C)O)cc3C(=O)N([C@H](C)CO)C[C@@H]2C)cc1`: the cytotoxicity call in the experiment on HSkMC and with HepG2 was “inactive” each time. Besides, the growth inhibition call in the experiment on S. aureus RN4220 was “inactive”.

As for `C[C@H](CO)N1C[C@H](C)[C@H](CN(C)S(=O)(=O)c2cccs2)Oc2ccc(NC(=O)CCC(F)(F)F)cc2CC1=O`, the cytotoxicity call in the experiment on HSkMC and in the experiment with HepG2 was “inactive” in each case. In the experiment with S. aureus RN4220, the growth inhibition call was “inactive”.

Regarding `COc1ccc([C@H]([C@H](Cc2ccccc2)OC(C)=O)N(C[C@H](/C=C/c2ccccc2)OC(C)=O)[C@@H](Cc2ccccc2)C(OC)OC)cc1`, the cytotoxicity call in the experiment with HSkMC and in the experiment on HepG2 was “inactive” each time. In the experiment with S. aureus RN4220, the growth inhibition call is “inactive”.

`C[C@@H]1CCCCO[C@@H](CN(C)S(=O)(=O)c2cccs2)[C@H](C)CN([C@@H](C)CO)C(=O)c2cc(NC(=O)Nc3cccc4ccccc34)ccc2O1`: the cytotoxicity call with HSkMC and in the experiment on HepG2 was “inactive” throughout. Besides, in the experiment with S. aureus RN4220, the growth inhibition call is “inactive”.

For `CNC(=O)Cn1cc2c(n1)CC[C@H](C)C2`, the cytotoxicity call in the experiment on HSkMC (human skeletal muscle cells) and with HepG2 was “inactive” each time. Besides, the growth inhibition call with S. aureus RN4220 is “inactive”.

In the case of `C[C@H](N)C(=O)NCC(=O)N[C@H]1CSSC[C@@H](C(=O)O)NC(=O)[C@H](CO)NC(=O)[C@H]([C@@H](C)O)NC(=O)[C@H](Cc2ccccc2)NC(=O)[C@H]([C@@H](C)O)NC(=O)[C@H](CCCCN)NC(=O)[C@H](Cc2c[nH]c3ccccc23)NC(=O)[C@H](Cc2ccccc2)NC(=O)[C@H](Cc2ccccc2)NC(=O)[C@H](CC(N)=O)NC(=O)[C@H](CCCCN)NC1=O`, the cytotoxicity call in the experiment with HSkMC and in the experiment with HepG2 was “inactive” each time. The growth inhibition call in the experiment on S. aureus RN4220 is “inactive”.
